According to article PMC4336329 (PLoS ONE, 2015):
The whole screen tested about 310,000 compounds, of which about 14,000 (4.5%) showed an effect of 50% or more. Effects have a minus sign here. The list shows a part of the results.

Target: human ether-à-go-go-related gene (hERG) potassium channel (human, UniProt Q12809)
Assay: primary screen, population patch clamp on CHO cells stably expressing hERG
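Note: peak tail current of the secondary pulse compared with the same well before compound.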

human ether-à-go-go-related gene (hERG) potassium channel, sequence (Q12809 whole entry, looked up): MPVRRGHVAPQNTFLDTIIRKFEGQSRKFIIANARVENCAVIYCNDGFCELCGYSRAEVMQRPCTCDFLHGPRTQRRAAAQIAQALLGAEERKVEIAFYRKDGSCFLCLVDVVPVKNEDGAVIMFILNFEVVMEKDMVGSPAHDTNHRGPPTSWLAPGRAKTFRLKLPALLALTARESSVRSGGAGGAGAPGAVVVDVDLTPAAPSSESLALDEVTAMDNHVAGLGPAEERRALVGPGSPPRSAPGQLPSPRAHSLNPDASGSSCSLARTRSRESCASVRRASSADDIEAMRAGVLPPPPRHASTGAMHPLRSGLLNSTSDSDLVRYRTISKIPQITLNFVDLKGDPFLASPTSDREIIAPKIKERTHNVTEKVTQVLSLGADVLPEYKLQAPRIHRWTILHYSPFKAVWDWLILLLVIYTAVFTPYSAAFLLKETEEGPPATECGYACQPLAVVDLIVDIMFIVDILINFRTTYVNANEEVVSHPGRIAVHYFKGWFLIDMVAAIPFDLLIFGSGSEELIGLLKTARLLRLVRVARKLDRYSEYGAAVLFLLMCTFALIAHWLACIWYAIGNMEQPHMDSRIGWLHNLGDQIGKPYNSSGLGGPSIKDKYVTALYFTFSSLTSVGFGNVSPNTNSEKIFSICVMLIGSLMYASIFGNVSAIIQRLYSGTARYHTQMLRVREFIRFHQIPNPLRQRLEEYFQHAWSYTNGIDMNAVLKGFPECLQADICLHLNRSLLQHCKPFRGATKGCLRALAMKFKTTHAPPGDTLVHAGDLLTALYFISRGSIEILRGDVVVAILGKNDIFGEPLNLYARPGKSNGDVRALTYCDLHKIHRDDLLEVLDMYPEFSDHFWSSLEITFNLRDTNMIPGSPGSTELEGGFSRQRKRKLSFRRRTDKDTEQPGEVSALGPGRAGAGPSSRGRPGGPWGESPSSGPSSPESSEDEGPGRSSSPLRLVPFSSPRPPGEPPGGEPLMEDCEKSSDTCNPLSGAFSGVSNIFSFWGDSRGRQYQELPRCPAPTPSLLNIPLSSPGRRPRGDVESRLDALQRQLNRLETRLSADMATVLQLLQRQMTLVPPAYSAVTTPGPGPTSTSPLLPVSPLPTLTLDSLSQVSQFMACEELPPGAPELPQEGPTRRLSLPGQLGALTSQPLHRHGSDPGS

Going from `Cc1cc(C)n2nc(C(=O)OCC(=O)N3CC(C)CC(C)C3)nc2n1` (stereo not drawn) to `CCOC(=O)N1CCC(NC(=O)c2cccc3c2C(=O)N(CCOC)C3)CC1`, the “hERG current change (%, negative = inhibition) at 10uM” value falls from 15.4% to -1.34%.

Compared with `CC(C)S(=O)(=O)C/C(N)=N/OS(=O)(=O)c1ccc(Cl)cc1`, `Cc1ccc(S(=O)(=O)N(C)CC(=O)O/N=C(\N)c2ccccn2)cc1` is lower in “hERG current change (%, negative = inhibition) at 10uM” value: 4.67% for the first, 0.257% for the second.

First: COc1ccc(S(=O)(=O)N2CCCC(C(=O)NCc3ccc4c(c3)OCO4)C2)cc1 (stereo not drawn)
Second: CS(=O)(=O)N(CC(=O)NCc1ccc2c(c1)OCO2)C1CCCCC1
The “hERG current change (%, negative = inhibition) at 10uM” value of the first is lower: -9.93% for the first, -3.33% for the second.

First: Cc1ccc(S(=O)(=O)NCCC(=O)Nc2ccc3c(c2)OCO3)cc1
Second: Cc1cccc(N(CC(=O)NC(C)(C)C)C(=O)CS(=O)CC(=O)Nc2ccc3c(c2)OCO3)c1 (stereo not drawn)
The “hERG current change (%, negative = inhibition) at 10uM” value of the first is lower: -0.997% for the first, 20% for the second.

Going from `COc1ccc(-n2c(O)c(/C=N/NS(=O)(=O)c3cccc([N+](=O)[O-])c3)c3ccccc3c2=O)cc1OC` to `CCOc1cc(/C=N/NS(=O)(=O)c2ccccc2)ccc1OS(=O)(=O)c1ccc(C)cc1`, the “hERG current change (%, negative = inhibition) at 10uM” value falls from 3.99% to 2.1%.

Going from `CC(C)OP(=O)(c1ccc(N(C)C)cc1)C(Nc1ccccc1)c1ccccc1` (stereo not drawn) to `COc1ccccc1P(=O)(c1ccccc1)c1ccc([N+](=O)[O-])cc1` (stereo not drawn), the “hERG current change (%, negative = inhibition) at 10uM” value falls from -11.8% to -15.1%.

Compared with `Cc1cccc(C(=O)Nc2ccc3ccccc3c2)c1`, `Cc1ccc(-c2nc3ncccc3o2)cc1NC(=O)c1ccccc1` is lower in “hERG current change (%, negative = inhibition) at 10uM” value: 10.1% for the first, -0.0328% for the second.

Going from `COc1ccc(NC(=S)N2CCN(CCN3C(=O)c4cccc5cccc(c45)C3=O)CC2)cc1` to `COCCNC(=O)CN1C(=O)c2cccc3cccc1c23`, the “hERG current change (%, negative = inhibition) at 10uM” value rises from 3.54% to 12%.

First: Cc1ccc(NC(=O)CCC(=O)NNC(=O)/C=C/C(=O)O)c(C)c1
Second: CCN(CC(=O)Nc1ccccc1C(=O)OC)S(=O)(=O)c1ccc(OC)cc1
The “hERG current change (%, negative = inhibition) at 10uM” value of the first is higher: 1.99% for the first, -41.7% for the second.

Going from `Cc1ccc2c(Cl)cc(Cl)c(OCC(=O)NCCc3ccccn3)c2n1` to `Cc1cc(C)n(CCNC(=O)c2cc(COc3ccc4ncccc4c3)on2)n1`, the “hERG current change (%, negative = inhibition) at 10uM” value rises from -42.7% to -3.15%.

Compared with `CCCN1CCN(C(=O)C2CCN(S(=O)(=O)c3ccc4c(c3)NC(=O)C(C)S4)CC2)CC1` (stereo not drawn), `CCNC(=S)N1CCN(S(=O)(=O)c2ccc(C)cc2)CC1` is lower in “hERG current change (%, negative = inhibition) at 10uM” value: 14.9% for the first, 5.89% for the second.

First: CC(C)CCNC(=O)c1cnn2c(C(F)(F)F)cc(-c3ccco3)nc12
Second: Cc1ccc2nc(NC(=O)c3ccco3)sc2c1
The “hERG current change (%, negative = inhibition) at 10uM” value of the first is lower: -14.6% for the first, 0.24% for the second.

Compared with `Cc1nn(C)cc1-c1csc(N)n1`, `COc1ccc(C)cc1-n1nnnc1SCc1csc(C)n1` is lower in “hERG current change (%, negative = inhibition) at 10uM” value: 15.2% for the first, -16.2% for the second.

Going from `Cc1nn(C)cc1C(C(=O)NC1CCCCC1)N(C(=O)Cc1cccs1)c1ccc(F)cc1` (stereo not drawn) to `O=C(NCc1cccs1)C(=O)NCC1OCCCN1S(=O)(=O)c1cc(F)ccc1F` (stereo not drawn), the “hERG current change (%, negative = inhibition) at 10uM” value falls from 7.57% to -6.05%.

Going from `CCOC(=O)c1c[nH]c2c(C)cc(C)cc2c1=O` to `COc1ccc(CC(=O)Oc2ccc(C)cc2C)cc1`, the “hERG current change (%, negative = inhibition) at 10uM” value falls from -0.349% to -2.18%.

First: CCOC(=O)C1=C(C)NC(=O)C1(NC(=O)c1cccnc1)C(F)(F)F (stereo not drawn)
Second: CCOc1ncccc1C(=O)OCC(=O)c1c(N)n(C)c(=O)n(C)c1=O
The “hERG current change (%, negative = inhibition) at 10uM” value of the first is higher: 5.76% for the first, -9% for the second.

Compared with `CC1=C(C(=O)Nc2ccc(CC(=O)NCc3ccccc3C)cc2)SCCO1`, `Cc1cccc(NC(=O)CC2C(=O)NCCN2C(=O)Nc2ccc(Cl)cc2)c1` (stereo not drawn) is lower in “hERG current change (%, negative = inhibition) at 10uM” value: 18.7% for the first, 12% for the second.

Compared with `Cc1ccc(-n2cccc2/C=C2/C(=N)N3C(=NC2=O)SN=C3S(C)(=O)=O)cc1Cl`, `N=C1/C(=C\c2ccc(-c3cc(Cl)cc(Cl)c3)o2)C(=O)N=C2SC=C(c3ccccc3)N12` is lower in “hERG current change (%, negative = inhibition) at 10uM” value: 6.18% for the first, -26.1% for the second.

Going from `Cn1nc(-c2ccccc2)c2cc([N+](=O)[O-])ccc21` to `Cc1ccc(-c2cc(=O)[nH]c(NCc3ccccc3)n2)cc1`, the “hERG current change (%, negative = inhibition) at 10uM” value rises from 11.3% to 14.5%.

Compared with `O=C(CNC(=O)c1ccco1)NCCCc1ccccc1`, `COc1ccc(S(=O)(=O)NCC(=O)N(CC(=O)NCc2ccco2)Cc2ccccc2)cc1` is lower in “hERG current change (%, negative = inhibition) at 10uM” value: 9.83% for the first, -10.6% for the second.

Going from `CC1CC(C)(C)n2c(O)c(N=NC(N)=S)c3cccc1c32` (stereo not drawn) to `CCCN1C(=O)C(NC(C)=O)c2ccccc21` (stereo not drawn), the “hERG current change (%, negative = inhibition) at 10uM” value falls from 16.4% to 0.495%.

First: CCC(C)n1c(OC)nc2c1c(=O)n(C)c(=O)n2C (stereo not drawn)
Second: CCN1c2nc3c(C)cccn3c(=O)c2CC2(C(=O)N(C)C(=O)N(C)C2=O)C1C (stereo not drawn)
The “hERG current change (%, negative = inhibition) at 10uM” value of the first is lower: 7.19% for the first, 7.98% for the second.

Going from `CCc1nnc(NC(=O)Nc2ccc(OC)cc2)s1` to `COc1ccc(N/N=C(\C#N)C(N)=O)cc1`, the “hERG current change (%, negative = inhibition) at 10uM” value rises from 5.19% to 18%.

Going from `CCCCCOC(=O)CSc1n[nH]c(=O)[nH]c1=O` to `CCCCCSc1nc(O)cc(=O)[nH]1`, the “hERG current change (%, negative = inhibition) at 10uM” value rises from -12.2% to 10.7%.

Going from `OCCNc1c2ccccc2nc2ccccc12` to `O=C1c2ccccc2C(=O)C1Cc1cccc2ccccc12`, the “hERG current change (%, negative = inhibition) at 10uM” value rises from -31% to -17.8%.

Going from `CCc1nn(C(C)C(=O)Nc2cccc(C)c2C)c(=O)c2cc3occc3n12` (stereo not drawn) to `O=C(Nc1nc(-c2cc3ccccc3oc2=O)cs1)c1ccco1`, the “hERG current change (%, negative = inhibition) at 10uM” value rises from -0.753% to 9.4%.

Compared with `COC(=O)C1=C(C)N(c2ccc(Cl)cc2)/C(=C/c2cccs2)C1=O`, `CN1c2ccccc2C(=O)NC1c1ccc(Cl)cc1` (stereo not drawn) is higher in “hERG current change (%, negative = inhibition) at 10uM” value: -6.79% for the first, 10.8% for the second.

Going from `CCOc1ccc(NC(=S)NNC(=S)Nc2cccc(C(F)(F)F)c2)cc1` to `O=C(c1ccc(S(=O)(=O)Nc2cccc(C(F)(F)F)c2)cc1)N1CCOCC1`, the “hERG current change (%, negative = inhibition) at 10uM” value falls from 21.6% to 16.8%.

Compared with `COc1ccc(CC(=O)N2CCOCC2)cc1OC`, `COc1cc(/C=C/C(=O)OCc2cn3cc(Cl)ccc3n2)ccc1O` is lower in “hERG current change (%, negative = inhibition) at 10uM” value: 4.62% for the first, -5.17% for the second.

First: COc1ccc(/C(O)=C2/C(=O)C(=O)N(Cc3ccco3)C2c2cccs2)cc1 (stereo not drawn)
Second: COC(=O)c1ccc(N2CCC(c3cc(-c4ccc(OC)cc4)n[nH]3)CC2)c([N+](=O)[O-])c1
The “hERG current change (%, negative = inhibition) at 10uM” value of the first is lower: 9.46% for the first, 25.2% for the second.

Going from `CCOC(=O)CC(NC(=O)C1c2ccccc2Oc2ccccc21)c1ccc(C)cc1` (stereo not drawn) to `O=C(N/N=C/c1c(O)n(-c2ccccc2Cl)c(=O)c2ccccc12)C1COc2ccccc2O1` (stereo not drawn), the “hERG current change (%, negative = inhibition) at 10uM” value rises from 5.66% to 25.6%.

Going from `Cc1cc(=O)[nH]c(SCC(=O)NCC2CCCCC2)c1C#N` to `O=C(CSc1nnnn1C1CCCC1)Nc1ccccc1F`, the “hERG current change (%, negative = inhibition) at 10uM” value falls from 11.4% to -25.7%.

Compared with `COC(=O)CSc1nnc(-c2cnccn2)n1C`, `Cn1c(Cc2ccccc2)nnc1SCC(=O)Nc1ccc2c(c1)OCCO2` is higher in “hERG current change (%, negative = inhibition) at 10uM” value: -10.3% for the first, -2.8% for the second.

Compared with `CSc1ccccc1C(=O)NCC1CCCO1` (stereo not drawn), `CSc1ncccc1C(=O)N1CCCC(CCC(=O)NCc2ccc(F)c(F)c2)C1` (stereo not drawn) is higher in “hERG current change (%, negative = inhibition) at 10uM” value: -11.8% for the first, 6.61% for the second.

Compared with `O=C(Nc1ccc(Cl)cc1)ON=C1CCCC1`, `Cc1cccc(NC(=S)N(C)C2(c3ccccc3Cl)CCCCC2=O)c1` (stereo not drawn) is lower in “hERG current change (%, negative = inhibition) at 10uM” value: 2.62% for the first, 2.34% for the second.

Going from `CC1(C)CC(=O)C(C=NC2CCCCC2)=C(O)C1` to `Cc1c(C(=O)Nc2ccc3c(c2)OCCO3)sc2ncnc(N3CCCCC3C)c12` (stereo not drawn), the “hERG current change (%, negative = inhibition) at 10uM” value rises from -10.2% to 11.6%.

Compared with `CCCOC(=O)N[C@@H]1C(=O)N2C(C(=O)OCCC)=C(C)CS[C@H]12`, `CCCCn1c(N)c(N(CC(C)C)C(=O)CN(C)Cc2cccc(OC)c2)c(=O)[nH]c1=O` is lower in “hERG current change (%, negative = inhibition) at 10uM” value: -2.92% for the first, -3.67% for the second.

Going from `O=C(/C=C/c1ccccc1)C1C(=O)c2ccccc2C1=O` to `O=C(Nc1ccc(NS(=O)(=O)c2ccccc2)cc1)c1ccccc1`, the “hERG current change (%, negative = inhibition) at 10uM” value rises from -0.201% to 15.7%.

Compared with `Cc1cc(NCC(c2ccccc2)c2ccccc2)n2ncnc2n1`, `CCOC(=O)N1CCN(CC(O)c2ccccc2)CC1.O=C(O)C(=O)O` (stereo not drawn) is higher in “hERG current change (%, negative = inhibition) at 10uM” value: -40.7% for the first, 2.82% for the second.

Going from `Cc1nn(-c2ccccc2C(F)(F)F)c(=O)c2noc(C)c12` to `Cn1cccc1C(=O)C(=O)Nc1ccccc1C(F)(F)F`, the “hERG current change (%, negative = inhibition) at 10uM” value rises from 4.39% to 20.8%.

Going from `Nc1ccccc1Sc1cc(Cl)nnc1Cl` to `COc1ccc(C2CC(c3ccc(Cl)c(Cl)c3)Nc3nc(N)nn32)cc1` (stereo not drawn), the “hERG current change (%, negative = inhibition) at 10uM” value falls from 3.55% to -18.6%.

First: COCCCn1c(SCC(=O)Nc2ccc(NC(C)=O)cc2)nc2sc3c(c2c1=O)CCC3
Second: COC(=O)c1ccc(C(=O)N2CCCC(Nc3ccc(C(C)C)cc3)C2)cc1 (stereo not drawn)
The “hERG current change (%, negative = inhibition) at 10uM” value of the first is higher: 19.5% for the first, -6.85% for the second.

Going from `Cc1cc(NC(=O)c2ccc(C)c([N+](=O)[O-])c2)no1` to `CCOC(=O)c1ccc(-c2ccc(C=O)o2)cc1`, the “hERG current change (%, negative = inhibition) at 10uM” value falls from 31.2% to 16.6%.

Compared with `CCCn1c(CCC(=O)O)nc2cc(S(=O)(=O)N(CC)CC)ccc21`, `O=C1[C@H](O)[C@@H](O)C(=O)N1Cc1ccccc1` is higher in “hERG current change (%, negative = inhibition) at 10uM” value: -1.79% for the first, 20.6% for the second.

Going from `CC1(C)Cc2nc3sc4c(SCC(=O)NCc5ccco5)ncnc4c3cc2CO1` to `CN(C)c1ccc(C=Nc2ccccc2)cc1`, the “hERG current change (%, negative = inhibition) at 10uM” value rises from 5.23% to 8.33%.
